Reference: patent US20140234313A1 (AFFINITY BIOSCIENCES, published 2014)

B1: α-mAG scFv (mAG-binding IGLV3-1::IGHV3-23 clone) displayed in RED permeabilised E. coli cells (scFv)
scFv: MGDGQSVLTQPPSVSVSPGQTASITCSGDKLGDKYACWYQQKPGQSPVLVIYQDSKRPSGIPERFSGSNSGNTATLTISGTQAMDEADYYCQAWDFNLGGCGDTVVFGTGTKVTVSSQTGGSGGGGSGGGGSGGGGS[letters of about 100 residues left out]HIDGPVAAFDIWGQGTMVTVSSSSQTSILVA
notes: Expressed in the E. coli cytoplasm as a fusion in the RED display vector and retained in permeabilised cells; also called anti-mAG-BioHis6 scFv; not shown: the vector is described in WO 2011/075761
B2: gpD::α-mAG scFv fusion protein (scFv)
scFv: MTSKETFTHYQPQGNSDPAHTATAPGGLSAKAPAMTPLMLDTSSRKLVAWDGTTDGAAVGILAVAADQTSTTLTFYKSGTFRYEDVLWPEAASDETKKRTAFAGTAISIVGGSGGSDDDDKSRNGGDGQSVLTQPPSVSVSPGQTASITCSGDKLGDKYACWYQQKPGQSPVLVIYQDSKRPSGIPERFSGSNSGNTATLTISGTQAMDEADYYCQAWDFNLGGCGDTVVFGTGTKVTVSSQTGGSGGGGSGGGGSGGGGS[letters of about 100 residues left out]HIDGPVAAFDIWGQGTMVTVSNSSDYKDDDDK
notes: α-mAG scFv as C-terminal fusion to the lambda bacteriophage gpD capsid protein with C-terminal FLAG; also called lambda capsid gpD fusion of the α-mAG scFv

Columns and labels:
[1] = molecular target: T1, mAG-BioHis6 protein (monomeric Azami-Green with C-terminal BirA biotinylation motif and 6xHis tag) (biotinylated (E. coli BirA biotinylation motif) where bound to streptavidin beads); test: RED display screen (MACS beads, FACS), mAG labelling of permeabilised cells
T1 construct: Fluorescent target protein, purified; also called mAG1; biotinylated mAG
T1 chain: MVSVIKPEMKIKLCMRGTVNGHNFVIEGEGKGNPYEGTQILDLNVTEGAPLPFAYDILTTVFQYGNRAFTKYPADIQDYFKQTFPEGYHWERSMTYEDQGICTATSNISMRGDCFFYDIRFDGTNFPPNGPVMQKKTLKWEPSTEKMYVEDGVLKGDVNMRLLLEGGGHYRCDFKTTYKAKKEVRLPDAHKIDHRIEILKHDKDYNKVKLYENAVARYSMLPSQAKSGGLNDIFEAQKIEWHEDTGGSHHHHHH
Description: 10¹⁰ cells of the diversified library, representing a ˜100-fold redundancy were induced for RED display as described in Example 2 and in WO 2011/075761. The permeabilised cells were suspended in 50 mL PBS and were labeled with purified mAG that had been pre-bound to MACS streptavidin-conjugated microbeads (130-048-102, Miltenyi Biotec). The cells and microbeads were gently agitated overnight at 4° C. They were then loaded onto 3×LS columns (130-042-401, Miltenyi Biotec) that were fixed to a magnetic support. Each column was washed with 50 mL of PBS. The cells were eluted in 10 mL PBS, pooled and pelleted. Plasmid DNA encoding the library in the RED display vector was isolated from the cell pellet by the alkaline lysis. The plasmid was then electroporated back into Argentum cells and the induction, binding and column purification was repeated. After four iterations of the affinity screen, a low abundance of RED permeabilised cells were observed by fluorescence microscopy to be binding to the mAG protein. At the fifth iteration the permeabilised cells were sorted for mAG binding by FACS. Cells were labeled for FACS using SNAP ligand, to normalise the fusion protein expression, and mAG. […] The scFv from the mAG-positive cells that were the FACS output were recovered by PCR using oligonucleotide primers flanking the scFv sequence and the product was re-cloned back into the RED display vector. […]

[2] = molecular target: T1, mAG-BioHis6 protein (monomeric …); test: FACS and fluorescence microscopy of permeabilised cells with encapsulated lysis-defective lambda phage, labelled with mAG
Description: The mAG-positive cells containing encapsulated phage are in the right gate. The bacteriophage recovered from the FACS screen were induced for bacteriophage replication and gpD::α-mAG expression and labeled with mAG using the RED method (Bottom).
The gpD::α-mAG scFv fusion was then cloned into the lambda display vector under the control of the araBAD promoter. The host cells were induced for lambda packaging by heating the lysogen clone at 42° C. for 15 minutes (the lambda genetic background was cI857 gpD⁺ RS⁻ with the temperature sensitive cI repressor). The fusion protein was induced with 0.2% arabinose immediately following thermal induction. The culture was grown, with aeration, at 32° C. for a further 75 minutes. The cells were pelleted and resuspended in ⅓^rd culture volume of LB media+0.5% 8TGP and incubated at 25° C. for 10 minutes to permeabilise the cells by the RED method for screening. To release the phage, 1/10,000th culture volume of Ready-Lyse (Epicentre) lysozyme was added to the suspension. A drop of chloroform was added to inactivate any surviving cells and the bacteriophage particles released were titred for lysogen forming units (cfu/mL). Two bacteriophage stocks were made—one with the construct with the cloned gpD::α-mAG scFv fusion, the other an empty construct. […]

Binder	binding result [1]	binding result [2]
B1	binds	–
B2	–	binds
